The other results are listed elsewhere or left out.
Experiments:
Test in all cases: glycan array binding signal (z-score within array); higher = stronger binding
Conditions in all cases: glycan notation: IUPAC condensed, linker removed
[1] = target: Gal(b1-4)GalNAc(b1-3)[Fuc(a1-2)]Gal(b1-4)GlcNAc
Outline: (§1)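 Glycan array binding is given as a within-array Z-score, which can be read as non-binding when negative. The arrays, 3228 of them, came from the Consortium for Functional Glycomics database and were retained only where the protein sequence was available. Z-scores were averaged across arrays of the same protein sequence at different concentrations or buffers and across linkers.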

Gal(b1-4)Glc = target: Gal(b1-4)Glc
Outline: as §1

Gal(b1-4)Glc6S = target: Gal(b1-4)Glc6S
Outline: as §1

Gal(b1-4)GlcNAc = target: Gal(b1-4)GlcNAc
Outline: as §1

[2] = target: Gal(b1-4)GlcNAc(a1-6)Gal(b1-4)GlcNAc
Outline: as §1

Gal(b1-4)GlcNAc(b1-2)Man = target: Gal(b1-4)GlcNAc(b1-2)Man
Outline: as §1

[3] = target: Gal(b1-4)GlcNAc(b1-2)Man(a1-3)Man(b1-4)GlcNAc(b1-4)GlcNAc
Outline: as §1

[4] = target: Gal(b1-4)GlcNAc(b1-2)Man(a1-3)[Gal(b1-4)GlcNAc(b1-2)Man(a1-6)]Man(b1-4)GlcNAc(b1-4)GlcNAc
Outline: as §1

[5] = target: Gal(b1-4)GlcNAc(b1-2)Man(a1-3)[Gal(b1-4)GlcNAc(b1-2)Man(a1-6)]Man(b1-4)GlcNAc(b1-4)[Fuc(a1-6)]GlcNAc
Outline: as §1

[6] = target: Gal(b1-4)GlcNAc(b1-2)Man(a1-3)[Gal(b1-4)GlcNAc(b1-2)Man(a1-6)][Gal(b1-4)GlcNAc(b1-4)]Man(b1-4)GlcNAc(b1-4)[Fuc(a1-6)]GlcNAc
Outline: as §1

[7] = target: Gal(b1-4)GlcNAc(b1-2)Man(a1-3)[Gal(b1-4)GlcNAc(b1-2)Man(a1-6)][GlcNAc(b1-4)]Man(b1-4)GlcNAc(b1-4)[Fuc(a1-6)]GlcNAc
Outline: as §1

[8] = target: Gal(b1-4)GlcNAc(b1-2)Man(a1-3)[GlcNAc(b1-2)Man(a1-6)]Man(b1-4)GlcNAc(b1-4)GlcNAc
Outline: as §1

[9] = target: Gal(b1-4)GlcNAc(b1-2)Man(a1-3)[GlcNAc(b1-4)][Gal(b1-4)GlcNAc(b1-2)Man(a1-6)]Man(b1-4)GlcNAc(b1-4)GlcNAc
Outline: as §1

[10] = target: Gal(b1-4)GlcNAc(b1-2)Man(a1-3)[Man(a1-6)]Man(b1-4)GlcNAc(b1-4)GlcNAc
Outline: as §1

[11] = target: Gal(b1-4)GlcNAc(b1-2)Man(a1-6)Man(b1-4)GlcNAc(b1-4)GlcNAc
Outline: as §1

[12] = target: Gal(b1-4)GlcNAc(b1-2)Man(a1-6)[GlcNAc(b1-2)Man(a1-3)]Man(b1-4)GlcNAc(b1-4)GlcNAc
Outline: as §1

[13] = target: Gal(b1-4)GlcNAc(b1-2)Man(a1-6)[Man(a1-3)]Man(b1-4)GlcNAc(b1-4)GlcNAc
Outline: as §1

[14] = target: Gal(b1-4)GlcNAc(b1-2)[Gal(b1-4)GlcNAc(b1-4)]Man(a1-3)[Gal(b1-4)GlcNAc(b1-2)Man(a1-6)]Man(b1-4)GlcNAc(b1-4)GlcNAc
Outline: as §1

[15] = target: Gal(b1-4)GlcNAc(b1-2)[Gal(b1-4)GlcNAc(b1-4)]Man(a1-3)[Gal(b1-4)GlcNAc(b1-2)[Gal(b1-4)GlcNAc(b1-6)]Man(a1-6)]Man(b1-4)GlcNAc(b1-4)GlcNAc
Outline: as §1

[16] = target: Gal(b1-4)GlcNAc(b1-2)[Gal(b1-4)GlcNAc(b1-4)]Man(a1-3)[GlcNAc(b1-4)][Gal(b1-4)GlcNAc(b1-2)Man(a1-6)]Man(b1-4)GlcNAc(b1-4)GlcNAc
Outline: as §1

[17] = target: Gal(b1-4)GlcNAc(b1-2)[Gal(b1-4)GlcNAc(b1-4)]Man(a1-3)[GlcNAc(b1-4)][Gal(b1-4)GlcNAc(b1-2)[Gal(b1-4)GlcNAc(b1-6)]Man(a1-6)]Man(b1-4)GlcNAc(b1-4)GlcNAc
Outline: as §1

[18] = target: Gal(b1-4)GlcNAc(b1-2)[Gal(b1-4)GlcNAc(b1-6)]Man(a1-6)[Gal(b1-4)GlcNAc(b1-2)Man(a1-3)]Man(b1-4)GlcNAc(b1-4)GlcNAc
Outline: as §1

B1: HBHA-Rv (Mycobacterium tuberculosum), P0A5P6 (protein)
chain: MAENSNIDDIKAPLLAALGAADLALATVNELITNLRERAEETRTDTRSRVEESRARLTKLQEDLPEQLTELREKFTAEELRKAAEGYLEAATSRYNELVERGEAALERLRSQQSFEEVSARAEGYVDQAVELTQEALGTVASQTRAVGERAAKLVGIELPKKAAPAKKAAPAKKAAPAKKAAAKKAPAKKAAAKKVTQK
glycan array binding signal (z-score) [1]: -0.175 | glycan array binding signal (z-score) (Gal(b1-4)Glc): 0.046 | glycan array binding signal (z-score) (Gal(b1-4)Glc6S): 0.036 | glycan array binding signal (z-score) (Gal(b1-4)GlcNAc): -0.196 | glycan array binding signal (z-score) [2]: -0.438 | glycan array binding signal (z-score) (Gal(b1-4)GlcNAc(b1-2)Man): 1.37 | glycan array binding signal (z-score) [3]: -0.235 | glycan array binding signal (z-score) [4]: 0.061 | glycan array binding signal (z-score) [5]: -0.196 | glycan array binding signal (z-score) [6]: -0.434 | glycan array binding signal (z-score) [7]: -0.352 | glycan array binding signal (z-score) [8]: -0.447 | glycan array binding signal (z-score) [9]: -0.309 | glycan array binding signal (z-score) [10]: 0.103 | glycan array binding signal (z-score) [11]: -0.316 | glycan array binding signal (z-score) [12]: -0.224 | glycan array binding signal (z-score) [13]: -0.334 | glycan array binding signal (z-score) [14]: -0.439 | glycan array binding signal (z-score) [15]: -0.315 | glycan array binding signal (z-score) [16]: -0.349 | glycan array binding signal (z-score) [17]: -0.455 | glycan array binding signal (z-score) [18]: -0.359

Reference: the supplement of paper PMC8728848
